# Reference: PubChem BioAssay AID1671194 (National Center for Advancing Translational Sciences (NCATS), 2021)
# Out of some 140,000 compounds screened, about 240 (0.17%) were called active. The inconclusive results got no clear call from the source; some entries with a clear call stand among them for comparison. Calls follow the shape of the dose curve; as a rule, active = well fitted inhibition curve with a large enough effect; inconclusive = small, poorly fitted or top-dose-only effect; inactive = no such curve, though single readings can be large or run the other way. A potency beside an inconclusive call is a rough fit, not a confirmed value.
# Experiment: Primary qHTS assay for inhibitors of alpha-synuclein gene (SNCA) expression; also: nearly all actives have a fitted effect of over 45% in size
# Settings: HEK-293 SNCA-luciferase knock-in, luminescence, 24 h; series mostly up to 57.2 µM
# Potency is read from the fitted curve at half-maximal effect; tags tell the direction and shape of the fitted curve.
row,Compound,Potency
1,Cc1cccc(NC(=O)N2CCC3(CCNC(=O)CC3)CC2)c1,inactive
2,O=C(c1ccco1)N1CCCCCC1c1nc(C2CC2)no1 (stereo unspecified),"inconclusive: 39.8 µM [inhibitor, single point]"
3,Cc1ccccc1/C=C/C1=NCCN1,"inconclusive: 39.8 µM [inhibitor, single point]"
4,CC(=O)Nc1cccc(-c2cnc3n[nH]c(-c4ccc(F)cc4C)c3n2)c1,"inconclusive: 2.51 µM [inhibitor, full curve, poor fit]"
5,CS(=O)(=O)c1cnc(NCCn2ccnc2)nc1C1CCCNC1 (stereo unspecified),"inconclusive: 39.8 µM [inhibitor, single point]"
6,Cn1nc(C(=O)N2CCCC(CNC(=O)c3ccc(-c4ccccc4)cc3)C2)ccc1=O (stereo unspecified),"inconclusive: 22.4 µM [inhibitor, single point]"
7,CCOc1ccc(CCNC(=O)Cn2ccc3cc(S(=O)(=O)N4CCCCC4)ccc32)cc1,"inconclusive: 20 µM [inhibitor, partial curve]"
8,COc1ccc2[nH]c(C[C@@H]3C[C@@H](C(C)C)[C@H](CN(C)C)C=C3C)nc2n1,inactive
9,COc1cc(NC(=O)C2CCc3sc(C(=O)N4CCOCC4)cc3C2)cc(OC)c1 (stereo unspecified),inactive
10,COC(=O)c1ccccc1S(=O)(=O)N1CCC2(CCCNC2)C1 (stereo unspecified),inactive
11,Cc1ccc2c(C)c(C(=O)NCC(c3ccc(Cl)cc3)N3CCOCC3)oc2c1 (stereo unspecified),"inconclusive: 39.8 µM [inhibitor, single point]"
12,Cc1ccc(NC(=O)NC(C)c2c(-n3cccc3)sc(C)c2C)cc1F (stereo unspecified),"inconclusive: 0.891 µM [inhibitor, partial curve, poor fit]"
13,O=C(C1CCCN1c1nccc(Nc2ccccc2F)n1)N1CCN(Cc2ccccc2)CC1 (stereo unspecified),inactive
14,Cc1ccc(NC(=O)N2CCC(CCNC(=O)c3sccc3C)CC2)cc1,inactive
15,COCC(=O)NC1CCCN(Cc2ccc(-c3cncnc3)cc2)C1 (stereo unspecified),inactive
16,COc1ccc(NC(=O)CSc2n[nH]c(-c3ccccc3)n2)cc1Cl,"inconclusive: 39.8 µM [inhibitor, partial curve, poor fit]"
17,O=C(NCC1CCCCC1)C1CCCCN1Cc1ccc(-c2ccsc2)cc1 (stereo unspecified),"inconclusive: 17.8 µM [inhibitor, single point]"
18,COCCN(C)C[C@@H]1CN(C(=O)c2ccc(-c3ccc(C)o3)cc2)C[C@@H]1CO,"inconclusive: 25.1 µM [inhibitor, partial curve, poor fit]"
19,N#C/C(=C\c1ccccc1F)c1nc2ccccc2c(=O)[nH]1,"inconclusive: 5.62 µM [inhibitor, full curve, poor fit]"
20,CCC(CC)C(=O)NC[C@@H]1C=C(C)[C@H](Cc2nc3c(C)cccc3[nH]2)C[C@H]1C(C)C,"inconclusive: 39.8 µM [inhibitor, single point]"
21,CCOc1ccccc1N(CC)C(=O)c1cc2c(=O)n(CC)c3ccccc3c2s1,"inconclusive: 0.708 µM [inhibitor, full curve, poor fit]"
22,Cc1cc(Nc2cccc(C(F)(F)F)c2)nc2ccc(NC(=O)c3cncc(Br)c3)cc12,"inconclusive: 28.2 µM [inhibitor, partial curve, poor fit]"

row,Compound,Potency
1,COCCNC(=O)C[C@@H]1C[C@H]2O[C@H](CNC3CCC(F)(F)CC3)[C@@H](O)[C@H]2O1,"inconclusive: 7.94 µM [inhibitor, single point]"
2,CC[C@@]1(O)C(=O)OCc2c1cc1n(c2=O)Cc2cc3cc(O)ccc3nc2-1,"inconclusive: 0.136 µM [inhibitor, full curve]"
3,COc1ccc(NC(=O)N[C@H]2[C@H](O)[C@@H](N3CCC(C(N)=O)CC3)[C@@H]3OC[C@H]2O3)cc1,"inconclusive: 2.24 µM [inhibitor, full curve]"
4,CN1C(=O)C(CC(=O)N(C)C2CCNCC2)(Cc2ccccc2)c2ccccc21 (stereo unspecified),inactive
5,Cc1ccc(-c2cc3c(=O)n(CCNC(=O)c4ccc5ccccc5n4)ccn3n2)cc1C,inactive
6,CO[C@H]1CN(C2CCN(C(=O)CCC3CCCC3)CC2)[C@H]1c1ccncc1,inactive
7,N#Cc1cccnc1-c1ccc(C(=O)N2CCC(NC(=O)Cc3cccc(Cl)c3)CC2)cc1,inactive
8,Cc1ccccc1C(=O)N1C2CCCC1CC(=O)C2,inactive
9,N#Cc1ccc(C(=O)N[C@@H]2CN(Cc3ccccc3)C[C@H]2CO)cc1,"inconclusive: 25.1 µM [inhibitor, single point]"
10,COc1cccc(C(=O)N2CC(Oc3ccccc3-c3nc(-c4ccccc4)no3)C2)c1,"inconclusive: 44.7 µM [inhibitor, partial curve, poor fit]"
11,CCOC(=O)c1cc2c(=O)n3ccccc3nc2n(CC2CCCO2)c1=NC(=O)c1cc(C)cc(C)c1 (stereo unspecified),"inconclusive: 39.8 µM [inhibitor, single point]"
12,Cc1[nH]c2c(C)cccc2c1CCNC(=O)c1cc2ccccc2oc1=O,"inconclusive: 7.08 µM [inhibitor, single point]"
13,Cc1cccc(-c2[nH]c(C(C)(C)C)nc2-c2ccc3nccnc3c2)n1,"inconclusive: 27.1 µM [inhibitor, single point]"
14,CCOCCN1C(=O)NC(c2ccccc2)C2=C1COC2=O (stereo unspecified),"inconclusive: 8.91 µM [inhibitor, single point]"
15,COc1cccc(N2CCN(C(=O)c3nc(-c4ccc(Cl)cc4)n4c3CCCCC4)CC2)c1,"inconclusive: 15.8 µM [inhibitor, single point]"
16,COCCNC(=O)c1noc(-c2ccc[nH]c2=O)n1,inactive
17,CC(C)(C)c1ccc(C(=O)Nc2nc3c(s2)C[C@@H]2[C@](C)(CO)[C@H](O)CC[C@@]2(C)[C@@H]3CC(=O)N2CCC(C(N)=O)CC2)cc1,inactive
18,COc1ccc(NC(=O)C2(C)CN(C)Cc3ccc(NCc4ccccc4)nc32)cn1 (stereo unspecified),"inconclusive: 15.8 µM [inhibitor, partial curve, poor fit]"
19,CC(C)CN1CCC[C@H]1c1nc(-c2ccnc(NS(C)(=O)=O)c2)no1,"inconclusive: 10 µM [inhibitor, full curve, poor fit]"
20,CC(C)(C)c1ccc(Oc2nc3ccccn3c(=O)c2/C=C(\C#N)c2nc3ccccc3s2)cc1,inactive
21,Cc1cc(=O)n(CC(=O)Nc2cccc(Cl)c2)c(N2CCc3ccccc3C2)n1,"inconclusive: 25.1 µM [inhibitor, single point]"
22,CCOC(=O)C[C@@H]1C[C@@H](C(C)C)[C@H](CNS(=O)(=O)c2ccc(OC)cc2)C=C1C,"inconclusive: 35.5 µM [inhibitor, partial curve, poor fit]"

row,Compound,Potency
1,CN1CCC(N[C@H]2C[C@@H](Cc3cc(-c4ccc(F)cc4)on3)C2(C)C)CC1,"inconclusive: 56.2 µM [inhibitor, single point]"
2,CCOC(=O)N1CCC(NC(=O)c2cnn(-c3ccc(C)cc3C)c2C2CCN(C(=O)OC(C)(C)C)CC2)CC1,"inconclusive: 39.8 µM [inhibitor, single point]"
3,O=C1CCC(C(=O)N2CCCn3nc(C(=O)Nc4ccccc4)cc3C2)=NN1,"inconclusive: 4.47 µM [inhibitor, single point]"
4,COc1ccc(C)cc1NC(=O)N1CC(c2nnc(-c3ccncc3)o2)C2(CCOCC2)C1 (stereo unspecified),inactive
5,COc1ccc(-n2cc(CN3CCCC(O)C3)c(-c3cccc(F)c3)n2)cc1 (stereo unspecified),inactive
6,O=C(c1cccnc1)N1CC(n2cc(COCc3ccccc3)nn2)C1,inactive
7,Cc1cnc(-c2ccccc2)n1CCC1CCN(C(=O)C2(c3ccccc3)CC2)CC1,inactive
8,COc1ccc(NC(=O)CCS(=O)(=O)c2ccc3c(c2)oc(=O)n3C)cc1OC,"inconclusive: 7.08 µM [inhibitor, single point]"
9,O=C(NCCc1ccc(Cl)cc1)c1ccc2c(c1)N(Cc1ccc(F)cc1)C(=O)CS2,"inconclusive: 2 µM [inhibitor, full curve]"
10,O=C(NCCC1CCN(C(=O)Nc2cccc(F)c2)CC1)C1CCC1,inactive
11,O=C(Cc1ccccn1)NC1CCN(Cc2ccc(-c3ccsc3)cc2)C1 (stereo unspecified),inactive
12,CCCc1cc(N2CCN(c3cccc(C)c3C)CC2)n2cnnc2n1,"inconclusive: 10 µM [inhibitor, partial curve, poor fit]"
13,CCCCN(C)C(=O)CC1CCN(c2ccnc(OC)n2)CC1,inactive
14,Cc1ccccc1N1CCN(C(=O)c2ccc3c(c2)N(C)C2CCCCCN2C3=O)CC1 (stereo unspecified),"inconclusive: 7.94 µM [inhibitor, partial curve, poor fit]"
15,C#CCNC(=O)C1CCCN(c2nccc(Nc3ccccc3F)n2)C1 (stereo unspecified),"inconclusive: 2.82 µM [inhibitor, full curve]"
16,O=C(NC1CCCCC1)c1cc2c(s1)CCN(C(=O)c1ccc(F)cc1)C2,"inconclusive: 39.8 µM [inhibitor, single point]"
17,COc1ccc2[nH]c(=O)c(CCC(=O)N3CCCC3)cc2c1,inactive
18,O=C(c1ccccc1)N1CCC(N2CCCC2=O)CC1,inactive
19,Cc1cn2nc(C(=O)Nc3ccc(C(=O)N4CCCC4)cc3)cc2c(=O)[nH]1,inactive
20,C[C@H]1[C@@H]2[C@@H](O)C([C@H](C)C(=O)NCCN3CCOCC3)CC[C@@]2(C)CC[C@@H]1NC(=O)c1ccccn1 (stereo partly specified),"inconclusive: 2.82 µM [inhibitor, partial curve, poor fit]"
21,COc1cccc(CN2C[C@H]3[C@H](C2)[S+](=O)([O-])C(C)(C)C(=O)N3Cc2ccccc2)c1,inactive
22,Cc1cccc(C)c1CN1CC2(COCC1=O)CN(c1ccc(C(F)(F)F)cn1)C2,inactive
